Assay [1] deals with H9 teratoma-derived LAM model cells, TSC2-/-. Kind of assay: percent SyTOX+ dead cells; higher = more cytotoxic. The following applies: 5 µM, treatment time 72 h, culture: 3D hyaluronic acid hydrogel.
Assay [2] relates to H9 teratoma-derived LAM model cells, WT. Kind of assay: percent SyTOX+ dead cells; higher = more cytotoxic. As to conditions: 5 µM, treatment time 72 h, culture: 3D hyaluronic acid hydrogel, genotype: WT.
In assay [3] the test system is H9 teratoma-derived LAM model cells, TSC2-/-. Kind of assay: percent of cells invaded past median invasion distance of vehicle control; LAM is lymphangioleiomyomatosis; the cells come from teratomas of the human stem cell line H9; higher = more invasion; extreme values may be limits of the assay. The following applies: 5 µM, treatment time 72 h, culture: 3D hyaluronic acid hydrogel.
For assay [4], the system named is H9 teratoma-derived LAM model cells, WT. Described as above. The following applies: 5 µM, treatment time 72 h, culture: 3D hyaluronic acid hydrogel, genotype: WT.

Structures are written as SMILES. Where “and” joins values, the source holds several entries; their conditions need not be identical. Identical values can stand only once. Counter-ions that a name gives are not always drawn. This is one part of the list. Single values are uncertain, as repeats are few or missing.
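Wherever percent SyTOX+ dead cells is given: cells seeded atop a hyaluronic acid gel crosslinked via MMP-cleavable peptides, containing vitronectin peptides and methylcellulose, imaged live by high-content microscopy with automated analysis, one technical replicate per compound.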
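Wherever percent of cells invaded past median invasion distance of vehicle control is given: live cells imaged by high content microscopy and scored with in-house automated image analysis, one technical replicate per compound in each genotype and rapamycin condition.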

Take `CCc1cncnc1N1CCN(Cc2nc3ccc(C(F)(F)F)cc3[nH]2)CC1`: the “percent SyTOX+ dead cells” value in assay [1] (rapamycin 0 nM) came out at 0.45%; in assay [1] (rapamycin 20 nM), 2.68%; in assay [2] (rapamycin 0 nM), 6.03%; in assay [2] (rapamycin 20 nM) it was 10.5%. Further, the percent was determined as 52% in assay [3] (rapamycin 0 nM), 52.2% in assay [3] (rapamycin 20 nM), 60.1% in assay [4] (rapamycin 0 nM) and 21.2% in assay [4] (rapamycin 20 nM).
As to `CCn1c(=O)c(-c2cc[nH]n2)cc2c(C)nc(N)nc21`, the “percent SyTOX+ dead cells” value in assay [1] (rapamycin 0 nM) turned out to be 5.22%; in assay [1] (rapamycin 20 nM), 3.8%; in assay [2] (rapamycin 0 nM), 8.74%; in assay [2] (rapamycin 20 nM), 11.2%. The percent amounted to 93% in assay [3] (rapamycin 0 nM), 60.8% in assay [3] (rapamycin 20 nM), 77.1% in assay [4] (rapamycin 0 nM) and 44.6% in assay [4] (rapamycin 20 nM).
For the compound `Cc1csc(-c2nnc(Nc3ccc(Oc4ncccc4-c4ccnc(N)n4)cc3)c3ccccc23)c1`, the “percent SyTOX+ dead cells” value in assay [1] (rapamycin 0 nM) came out at 15%; in assay [1] (rapamycin 20 nM), 5.73%; in assay [2] (rapamycin 0 nM), 13%; in assay [2] (rapamycin 20 nM), 9.63%. Further, the percent was 39.9% in assay [3] (rapamycin 0 nM), 82.4% in assay [3] (rapamycin 20 nM), 38.4% in assay [4] (rapamycin 0 nM) and 63% in assay [4] (rapamycin 20 nM).
For `CC[C@H](C)n1cc(C)c2c(C(=O)NCc3c(C)cc(C)[nH]c3=O)cc(-c3ccc(N4CCNCC4)nc3)cc21`, the “percent SyTOX+ dead cells” value worked out at 11% in assay [1] (rapamycin 0 nM), 9.72% in assay [1] (rapamycin 20 nM), 17.3% in assay [2] (rapamycin 0 nM) and 17.8% in assay [2] (rapamycin 20 nM). The percent is 80.6% in assay [3] (rapamycin 0 nM), 77.8% in assay [3] (rapamycin 20 nM), 74.2% in assay [4] (rapamycin 0 nM) and 67.3% in assay [4] (rapamycin 20 nM).
For `Nc1cccc(-c2cc3c(Oc4cccc(O)c4)ncnc3[nH]2)c1`, the “percent SyTOX+ dead cells” value in assay [1] (rapamycin 0 nM) was 19.1%; in assay [1] (rapamycin 20 nM) it was 20.7%; in assay [2] (rapamycin 0 nM), 47.8%; in assay [2] (rapamycin 20 nM), 41.2%. Also, the percent in assay [3] (rapamycin 0 nM), in assay [3] (rapamycin 20 nM), in assay [4] (rapamycin 0 nM) and in assay [4] (rapamycin 20 nM) was 0% in each case.
Turning to `CN1CCC(COc2cnc(-c3cccc(Cn4nc(-c5cccc(C#N)c5)ccc4=O)c3)nc2)CC1`, the “percent SyTOX+ dead cells” value in assay [1] (rapamycin 0 nM) came out at 8.03%; in assay [1] (rapamycin 20 nM) it was 2.01%; in assay [2] (rapamycin 0 nM), 11.1%; in assay [2] (rapamycin 20 nM), 11.7%. The percent in assay [3] (rapamycin 0 nM) is 69.5%; in assay [3] (rapamycin 20 nM), 97.7%; in assay [4] (rapamycin 0 nM), 74.3%; in assay [4] (rapamycin 20 nM), 83.5%.
On to `CNC(=O)c1ccc(N2C(=S)N(c3ccc(C#N)c(C(F)(F)F)c3)C(=O)C2(C)C)cc1F`, for which the “percent SyTOX+ dead cells” value in assay [1] (rapamycin 0 nM) was 7.08%; in assay [1] (rapamycin 20 nM), 12.9%; in assay [2] (rapamycin 0 nM) it was 6.67%; in assay [2] (rapamycin 20 nM), 17.6%. In addition, the percent turned out to be 66.8% in assay [3] (rapamycin 0 nM), 22.4% in assay [3] (rapamycin 20 nM), 48.4% in assay [4] (rapamycin 0 nM) and 48.4% in assay [4] (rapamycin 20 nM).
For the compound `CS(=O)(=O)c1cc(F)cc2c3c(n(Cc4ccc(Cl)cc4)c12)[C@@H](CC(=O)O)CC3`, the “percent SyTOX+ dead cells” value in assay [1] (rapamycin 0 nM) is 6.87%; in assay [1] (rapamycin 20 nM), 3.38%; in assay [2] (rapamycin 0 nM), 5.56%; in assay [2] (rapamycin 20 nM), 8.41%. The percent in assay [3] (rapamycin 0 nM) came out at 45.7%; in assay [3] (rapamycin 20 nM) it was 45.1%; in assay [4] (rapamycin 0 nM) it was 38.5%; in assay [4] (rapamycin 20 nM), 37.4%.
For the compound `Cn1cnc(-c2cc3nccc(Oc4ccc(NC(=S)NC(=O)Cc5ccccc5)cc4F)c3s2)c1`, the “percent SyTOX+ dead cells” value in assay [1] (rapamycin 0 nM) amounted to 14.2%; in assay [1] (rapamycin 20 nM) it was 0.97%; in assay [2] (rapamycin 0 nM), 37%; in assay [2] (rapamycin 20 nM), 35.4%. Moreover, the percent in assay [3] (rapamycin 0 nM) came to 59.7%; in assay [3] (rapamycin 20 nM) it was 26.2%; in assay [4] (rapamycin 0 nM) it was 8.44%; in assay [4] (rapamycin 20 nM) it was 4.72%.
Consider `CC1(COc2ccc3c(c2)ncn3-c2ccc3cccc(N4CCC(N)CC4)c3n2)COC1`, for which the “percent SyTOX+ dead cells” value was 22.6% in assay [1] (rapamycin 0 nM), 20.3% in assay [1] (rapamycin 20 nM), 41.7% in assay [2] (rapamycin 0 nM) and 46.7% in assay [2] (rapamycin 20 nM). Besides, the percent in assay [3] (rapamycin 0 nM) was 0.94%; in assay [3] (rapamycin 20 nM) it was 0%; in assay [4] (rapamycin 0 nM), 1.67%; in assay [4] (rapamycin 20 nM), 2.22%.
For `Nc1ncnc2n[nH]c(Nc3ccc(F)cc3)c12`, the “percent SyTOX+ dead cells” value was 16.7% and 8.41% in assay [1] (rapamycin 0 nM); 14.7% and 19.4% in assay [1] (rapamycin 20 nM); 30.3% and 19.4% in assay [2] (rapamycin 0 nM); 23.5% and 14.3% in assay [2] (rapamycin 20 nM). In addition, the percent in assay [3] (rapamycin 20 nM) is 13.7% and 38.1%; in assay [4] (rapamycin 0 nM), 3.52% and 6.45%; in assay [4] (rapamycin 20 nM), 4.41% and 8.57%.
`Cc1cccc(-c2[nH]c(C(C)(C)C)nc2-c2ccc3c(c2)OCO3)n1`: the “percent SyTOX+ dead cells” value was found to be 19.3% in assay [1] (rapamycin 0 nM), 10.9% in assay [1] (rapamycin 20 nM), 17.4% in assay [2] (rapamycin 0 nM) and 17.5% in assay [2] (rapamycin 20 nM). Moreover, the percent was determined as 44.3% in assay [3] (rapamycin 0 nM), 15.6% in assay [3] (rapamycin 20 nM), 13.4% in assay [4] (rapamycin 0 nM) and 12.6% in assay [4] (rapamycin 20 nM).
On to `NC(=O)Nc1cc(-c2cccc(F)c2)sc1C(=O)N[C@H]1CCCNC1` [AZD 7762, AZD-7762 hydrochloride], for which the “percent SyTOX+ dead cells” value was 33.6% and 28.8% in assay [1] (rapamycin 0 nM); 33.1% and 32.9% in assay [1] (rapamycin 20 nM); 55.7% and 63.6% in assay [2] (rapamycin 20 nM). Moreover, the percent in assay [3] (rapamycin 0 nM) was 2.05% and 1.84%; in assay [3] (rapamycin 20 nM), 0.81% and 18.1%; in assay [4] (rapamycin 0 nM) it was 0% and 2.56%; in assay [4] (rapamycin 20 nM) it was 0%.
As for `O=C(O)c1ccc(-n2nc(-c3ccccc3O)nc2-c2ccccc2O)cc1`, the “percent SyTOX+ dead cells” value in assay [1] (rapamycin 0 nM) was 12.4%; in assay [1] (rapamycin 20 nM), 6.83%; in assay [2] (rapamycin 0 nM), 4.05%; in assay [2] (rapamycin 20 nM), 5.92%. Moreover, the percent was 90% in assay [3] (rapamycin 0 nM), 25.1% in assay [3] (rapamycin 20 nM), 55.2% in assay [4] (rapamycin 0 nM) and 62.9% in assay [4] (rapamycin 20 nM).

The record behind these values is the supplement of paper PMC10502849.
